Data taken from PubChem BioAssay AID488969 (Vanderbilt High Throughput Screening Facility, 2010).
Over roughly 110,000 compounds, “z-score” has its median near -0.1; the highest 2% begin near 2. The list shows a part of the results. Activity calls are given as the source filed them.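 Rule for the calls: active = z-score in the third read window above 3 or below -3; inactive = the rest.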

The molecules below were run against Metabotropic glutamate receptor 8 (Rattus norvegicus) (UniProt P70579) (assay: mGluR8 Gi/Go-coupled signaling modulation – cell-based, rat, thallium flux, HTS, primary screen (AID 488969)). Conditions: HEK293 rat mGluR8, GIRK (G protein-gated inwardly rectifying potassium channel) thallium flux, FluoZin2; at 10 µM; stronger effect = higher value; submaximal glutamate (EC20) added with thallium.
Chain of UniProt P70579 (P70579 whole entry, looked up): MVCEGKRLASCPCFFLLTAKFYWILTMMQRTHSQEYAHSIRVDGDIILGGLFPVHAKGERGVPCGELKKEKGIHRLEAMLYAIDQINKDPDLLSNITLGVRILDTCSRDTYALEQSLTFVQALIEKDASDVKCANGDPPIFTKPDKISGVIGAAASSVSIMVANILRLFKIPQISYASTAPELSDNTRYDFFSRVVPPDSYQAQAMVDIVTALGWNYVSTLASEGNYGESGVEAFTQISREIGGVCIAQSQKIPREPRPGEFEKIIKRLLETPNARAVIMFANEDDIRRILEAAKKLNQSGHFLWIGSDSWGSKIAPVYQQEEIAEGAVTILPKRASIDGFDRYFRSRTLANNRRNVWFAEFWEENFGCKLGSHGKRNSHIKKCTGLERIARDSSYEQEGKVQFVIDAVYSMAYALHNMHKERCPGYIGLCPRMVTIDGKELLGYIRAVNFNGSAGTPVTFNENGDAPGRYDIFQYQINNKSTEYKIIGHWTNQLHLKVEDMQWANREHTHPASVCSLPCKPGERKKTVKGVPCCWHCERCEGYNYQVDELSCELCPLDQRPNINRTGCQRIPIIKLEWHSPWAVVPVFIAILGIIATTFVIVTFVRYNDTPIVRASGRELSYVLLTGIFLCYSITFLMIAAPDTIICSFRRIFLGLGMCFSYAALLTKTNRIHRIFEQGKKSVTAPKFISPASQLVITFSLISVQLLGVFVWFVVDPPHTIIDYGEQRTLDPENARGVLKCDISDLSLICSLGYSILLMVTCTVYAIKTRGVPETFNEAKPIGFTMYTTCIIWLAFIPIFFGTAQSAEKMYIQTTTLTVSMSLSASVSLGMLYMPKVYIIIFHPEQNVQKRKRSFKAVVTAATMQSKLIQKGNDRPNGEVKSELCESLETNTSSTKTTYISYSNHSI

| SMILES | z-score |
| --- | --- |
| C=CCNC(=S)/N=c1\sccn1C | -0.359 |
| O=C1CC(c2ccccc2)CC(O)=C1C=NCc1ccccc1 (stereo not drawn) | -0.229 |
| COc1ccc(/C=N/NC(=O)CCc2ccccc2)cc1O | 0.0155 |
| COc1ccc(/C=C2\SC(=O)N(CCNC(=O)CCS(=O)(=O)c3ccc(C)cc3)C2=O)cc1 | -0.156 |
| CCOC(=O)Cc1csc(NC(=O)CCCCCN2C(=O)c3cccc4cccc(c34)C2=O)n1 | -0.241 |
| O=C(COC(=O)CCS(=O)(=O)c1ccc(Cl)cc1)NCCc1ccccc1 | -0.341 |
| COc1cc(Cn2c(C(=O)O)cc3sccc32)cc(OC)c1OC | 1 |
| Cc1cccc(-c2noc(C3CCCCC3)n2)c1 | 0.407 |
| COc1ccc(C)cc1-n1c(N)c(C#N)c(C#N)c1-c1ccc(OC)c(OC)c1OC | -1.25 |
| N#Cc1ccc(C(=O)Nc2nnc(-c3ccccn3)o2)cc1 | -0.232 |
| COc1ccc2c(CC(=O)OCC(=O)NC(=O)c3cccn3C)coc2c1 | 0.246 |
| COc1ccc(N(C(C)C(=O)N/N=C/c2ccc(OC(C)C)cc2)S(C)(=O)=O)cc1 (stereo not drawn) | 0.783 |
| CN(CC(=O)Nc1ccccc1Cl)C(=O)CSc1nc2ccccc2s1 | -0.261 |
| CCOc1ccc(NC(=O)C[n+]2ccccc2)cc1 | -0.353 |
| CN(c1ccccc1C(=O)N1CCc2ccccc2C1)S(C)(=O)=O | -0.121 |
| Cc1nn(Cc2c(Cl)cccc2Cl)c(C)c1NC(=O)/C=C/c1cnn(C)c1C | 0.463 |
| Cc1cccc(-c2nc(CN3CCCC(C(=O)NC4CCCC4)C3)c(C)o2)c1 (stereo not drawn) | -1.37 |
| O=C(COc1ccc(S(=O)(=O)NCc2ccccc2)cc1Cl)N1CCOCC1 | 0.478 |
| CCCNS(=O)(=O)c1ccc(NC(=O)c2cccnc2)cc1 | -0.00977 |
| Cc1cccc(Cn2cnc3c(nnn3Cc3ccc(Cl)cc3)c2=O)c1 | -0.705 |
| O=C1NC(c2ccccc2)=C(c2nc3ccccc3s2)C(c2ccccc2)N1 (stereo not drawn) | -0.336 |
| CC(=O)c1cccc(NC(=O)N2C3CCC2CC(O)(c2cccnc2)C3)c1 (stereo not drawn) | 0.301 |
| COc1ccc(-c2cc(=O)oc3cc(OCC(C)=O)ccc23)cc1 | -0.444 |

| SMILES | z-score |
| --- | --- |
| O=C(NC1CCCCC1)N1CCCCCC1 | -0.274 |
| CCCCCCOC(=O)c1ccccc1NC(=O)/C=C/C(=O)O | -0.225 |
| CCc1sc(N(C(=O)Cc2ccccc2)c2ccccc2)nc1-c1ccccc1 | -0.282 |
| O=C(NC(=S)Nc1ccccc1)c1ccc(-c2ccccc2)cc1 | 0.0142 |
| Cc1cccc(CN2CCC(CNC(=O)CCNC(=O)Cn3ccc4ccccc4c3=O)CC2)c1 | -0.122 |
| CCOC(=O)c1sc2nccc(N(C)C)c2c1N=CNOCc1c(F)cccc1Cl | -0.108 |
| O=C(Nc1nc2ccccc2s1)C1CC(=O)N(c2ccc(F)cc2)C1 (stereo not drawn) | 0.674 |
| NC(=O)[C@H](Cc1cc2ccccc2s1)NC(=O)[C@@H]1CC2(CC(c3cccc(NC(=O)[C@@H]4CCC(=O)N4)c3)=NO2)CN1C(=O)/C=C/c1c(F)cccc1Cl (stereo partly drawn) | 0.0332 |
| O=C(Nc1ccc(NC(=O)c2sc3ccccc3c2Cl)cc1)c1ccco1 | 0.00434 |
| CCC(C)(C)n1nnnc1C(c1cc(OC)ccc1OC)N1CCC(C(N)=O)CC1 (stereo not drawn) | -0.05 |
| COc1ccc(-c2ccc(-c3noc(C)n3)c(OC)n2)cc1 | 0.368 |
| O=C(NC1CCCCC1)C(c1ccc(Cl)cc1)N1CCC2(CC1)OCCO2 (stereo not drawn) | -0.136 |
| Fc1ccc(-c2nc3ccncc3[nH]2)cc1 | -0.635 |
| CC1Cc2ccccc2N1C(=O)C1CCCCN1S(=O)(=O)c1ccccc1 (stereo not drawn) | -0.984 |
| COC(=O)c1sc(NC(=S)NC(=O)c2ccccc2Cl)nc1C | active: 5.46 |
| COc1ccc(-c2noc(CCC(=O)Nc3ccc(C)c(C)c3)n2)cc1 | 1.09 |
| O=C(N/N=C/c1ccco1)c1cnccn1 | -0.0222 |
| O=[N+]([O-])c1ccccc1SN(Cc1ccccc1)c1ccccn1 | -0.276 |
| CCOC(=O)c1nc[nH]c1C | -0.162 |
| CC(C(=O)NCCCN1CCOCC1)n1cccc1C(=O)c1ccccc1 (stereo not drawn) | 0.622 |
| COc1ccccc1CCn1cnc2c3cc(C)ccc3n(C)c2c1=O | -1.2 |
| COC(=O)c1sc2ncccc2c1OCc1cccc(Cl)c1 | -0.111 |
| COc1ccc(-c2csc(NC(=O)c3ccco3)n2)cc1 | -0.444 |

| SMILES | z-score |
| --- | --- |
| COc1ccc(Br)cc1CNC(=O)C1CCC(=O)N1C(C)C (stereo not drawn) | -0.111 |
| CCN(Cc1ccccc1)C(=O)CSc1nc(C)cc(C)c1C#N | -0.25 |
| Cc1ccc(N2C(=O)C(O)(C(F)(F)F)C3=C2CC(C)(C)CC3=O)cc1C (stereo not drawn) | -0.405 |
| Cc1cc(C)c2c(c1)/C(=N/NC(=S)Nc1ccc(F)cc1)CCC2 | 2.6 |
| Cc1c(NC(=O)CSc2nnc3sc4ccccc4n23)c(=O)n(-c2ccccc2)n1C | -0.134 |
| CCCN(CCC)c1c([N+](=O)[O-])c(=O)oc2ccccc12 | -0.893 |
| COc1ccc(/C=N/S(=O)(=O)CCc2ccccc2)c(OC)c1 | -0.284 |
| O=C(NCc1ccccc1)c1c(O)c2cccc3c2n(c1=O)CCC3 | -0.335 |
| CC(C(N)=O)N1C(=O)C2C3C=CC(C3)C2C1=O (stereo not drawn) | -0.159 |
| Cc1cnc(NC(=O)C2CCCC2)s1 | -0.0338 |
| COc1ccc(N2CCN(C(=O)CN(CCc3ccccc3)S(C)(=O)=O)CC2)cc1 | -0.213 |
| Cc1nnc(SCC(=O)Nc2ccc(Cl)cn2)[nH]c1=O | -0.143 |
| COc1ccc(-c2csc(C)n2)cc1 | -0.337 |
| CC1CCN(C(=S)Nc2ccc(F)cc2)CC1 | -0.195 |
| CCN1CCN(C(=O)c2ccc3c(=O)n(C4CCCC4)c(=S)[nH]c3c2)CC1 | active: 5.09 |
| O=S(Cc1ccccc1)CC(O)(c1ccc(Cl)cc1)c1ccc(Cl)cc1 (stereo not drawn) | 0.285 |
| CC1N(O)C(c2ccc(Cl)cc2Cl)N(O)C1(C)C (stereo not drawn) | 0.381 |
| COc1ccc(N2C(=O)C3CCCN3C2c2cccc(C)c2)cc1 (stereo not drawn) | -0.338 |
| CCOc1ccccc1-c1nc(-c2ccncc2)no1 | 0.0712 |
| CCOC(=O)c1cnc2cc(C)nn2c1-c1ccccc1 | 0.228 |
| O=C1CCc2cc(S(=O)(=O)NC(Cc3ccccc3)C(=O)NCCC3=CCCCC3)ccc2N1 (stereo not drawn) | -0.234 |
| CCc1ccc(C(=O)CSc2nc3cc(S(=O)(=O)N4CCOCC4)ccc3n2CC)cc1 | -0.33 |
| COCCN(Cc1cc2cc3c(cc2nc1Cl)OCO3)C(=O)Nc1ccc(OC)cc1 | -0.0519 |

| SMILES | z-score |
| --- | --- |
| CC1CCN(CCCNC(=O)c2cc3c(=O)n(C)c4ccccc4c3n2C)CC1 | 2.7 |
| Oc1ccccc1/C=N/Nc1nccnc1Cl | 0.965 |
| CCn1nc(CC(=O)Nc2nnc(CC(=O)N3CCOCC3)s2)c2ccccc2c1=O | -0.868 |
| O=C(CSc1nc2ccccc2c(=O)n1CC1CCCO1)N1CCN(c2ccccc2)CC1 (stereo not drawn) | -2.48 |
| CC1CCN(CCCCOc2ccccc2Br)CC1 | -0.0355 |
| CCn1c(C(=O)N2CCCC(C(=O)O)C2)cc2sccc21 (stereo not drawn) | 0.0393 |
| Cn1c(=O)oc2cc(S(=O)(=O)NCC3CCCO3)ccc21 (stereo not drawn) | 0.223 |
| CCCCOC(=O)NC(NCC(O)c1ccccc1)(C(F)(F)F)C(F)(F)F (stereo not drawn) | 0.379 |
| COCCNC(=O)COc1ccccc1C | -0.241 |
| COc1ccccc1C1CC(=O)Nc2c1c(=O)n(C)c(=O)n2C (stereo not drawn) | -0.0435 |
| COc1cccc(Nc2nc(-c3sc(NC(=O)c4ccccc4)nc3C)cs2)c1 | -0.232 |
| CN(C)c1ccc(NS(=O)(=O)c2ccc(Cl)cc2)cc1 | 0.00118 |
| CC(/C=C/c1ccc2c(c1)OCO2)=N/NC(=O)c1ccc(C)nc1 | 0.0861 |
| COC(=O)C1=C(C)N(C)C(=O)NC1c1cc(Cl)c(O)c(OC)c1 (stereo not drawn) | 0.559 |
| O=C(Nc1nnc(-c2ccncc2)o1)C1CCCCC1 | 1.01 |
| O=C(NCCN1CCN(C(=O)c2cccs2)CC1)c1cccs1 | 0.221 |
| O=C1c2ccccc2NC2(CCCC2)N1O | 0.103 |
| Cc1cccc2c1Sc1ccccc1CC2=O | -0.19 |
| c1ccc(CCc2nc(-c3ccncc3)no2)cc1 | 0.202 |
| Cn1ncc2cc(NC(=S)NC(=O)c3ccccc3)ccc21 | 2.21 |
| COCCn1c(C)cc(C(=O)CSc2ccc3ccccc3n2)c1C | -0.331 |
| COc1ccc(-n2ccsc2=S)cc1 | -0.032 |
| O=C(C1=C(O)C(=O)N(CCN2CCOCC2)C1c1ccncc1)c1ccco1 (stereo not drawn) | 1.07 |

| SMILES | z-score |
| --- | --- |
| Nc1nnc(SCC(=O)NCCOc2ccccc2)s1 | -0.164 |
| O=C1c2ccccc2-c2onc3c(Oc4ccccc4)cc(O)c1c23 | -0.148 |
| Cn1ncc(C#N)c1/N=C/N1CCCC1 | -0.709 |
| Cn1cnc2cc(NS(=O)(=O)c3ccc(Br)cc3)ccc21 | 0.0485 |
| O=C(Nc1cccc(Cl)c1)C1CCCN(S(=O)(=O)c2ccc(F)cc2)C1 (stereo not drawn) | -0.202 |
| COc1ccc(NC(=O)CN2CCN(CC(=O)Nc3ccccc3F)CC2)c(OC)c1 | 0.278 |
| NC(=S)N/N=C/c1coc2c(ccc3ccccc32)c1=O | -2.17 |
| O=C(Nc1cccc2ccccc12)N1CCN(c2ccccc2)CC1 | -0.177 |
| CCOc1ccccc1NC(=O)C1CCN(S(=O)(=O)c2ccc(OC)c(OC)c2)CC1 | 0.0579 |
| O=C(Cn1cnc2ccccc21)NCCCN1CCOCC1 | -0.019 |
| COc1ccc2c(c1)c(=O)oc1cc3occ(C(C)(C)C)c3cc12 | -0.319 |
| S=C1N(c2ccccc2)C(c2ccccc2)N2CCCN12 (stereo not drawn) | -0.167 |
| O=C(N/N=C/c1c[nH]c2ccccc12)c1sc2ccccc2c1Cl | -0.0651 |
| CCOC(=O)N1CCC(NC(=O)C2CCCN(S(C)(=O)=O)C2)CC1 (stereo not drawn) | 0.932 |
| CC(C)CNS(=O)(=O)c1ccc(CCC(=O)Nc2cc(Cl)ccc2Oc2ccccc2)cc1 | 0.192 |
| COc1cc(CNn2nnnc2N)ccc1OCc1c(Cl)cccc1Cl | -0.238 |
| COc1ccc(C)cc1S(=O)(=O)N1CCCC(C(=O)NCC2CCCO2)C1 (stereo not drawn) | -0.15 |
| O=C(CCN1C(=O)/C(=C/c2ccccc2)SC1=S)NNC(=O)c1cccnc1 | -0.155 |
| COc1cc(/C=N\NC(=O)Cn2nnc3ccccc32)cc(OC)c1OC | -0.0696 |
| C=CCn1c(SCC(=O)N2CCc3ccccc3C2)nc2sc(CC)cc2c1=O | -0.501 |
| O=C(Cn1c(C(=O)NCC2CCCO2)cc2sccc21)c1ccccc1 (stereo not drawn) | -0.207 |
